# From the supplement of paper PMC8728848
# This is one part of the list.
# B1: CaSRK1 (Capsicum annuum) (protein)
# chain: MALCKIFPFAFILLSCSCYLISGQRFDYPTANLSTTWINSVSAPHSIDYTDGSRIRAILLRGTFGPRYACGFYCNGNCESYLFAIFIVQTNSASQITSPAIGFPQVVWSANRNNPVKINSTLQLTAEGDLVLRDADGTLAWSTNTAGKSVAGLSLTDEGNLALFDSKNATVWQSFDHPTDALVPGQKLVPGMKLTASVSRTNWTAGGLFALSAIDNGLVAFVESNPPQKYFEASVGGSNTSGGSNYVKYLNGSLTLFTHSADTTELILISITPASSAQYMKLESNGHLKVYEWTSRGWREVDDLLTGFRGECNYPTVCGRYGICTMGQCSCPTSSSSRTYFRPIDVRRPSLGCSEVTKLTCQNTKKHSPLEVEDVDYFAFKAGISDTDLNTCKRACLEKCSCKAAFFRSGLNSSRTRGDCYLPTEIFSIMNNEKDRTRYDSVAFIKVQV
# What was measured:
# Assay in all cases: glycan array binding signal (z-score within array); higher = stronger binding
# Conditions in all cases: glycan notation: IUPAC condensed, linker removed
# [1] = molecular target: Man(a1-2)Man(a1-3)[Man(a1-2)Man(a1-6)]Man(a1-6)[Man(a1-2)Man(a1-2)Man(a1-3)]Man(b1-4)GlcNAc(b1-4)GlcNAc
# Summary of the method: (§1)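 The binding signal is a Z-score computed within each array and averaged over linkers. Arrays of the same protein sequence at different concentrations or buffers were also averaged together. Data originate from 3228 arrays in the Consortium for Functional Glycomics database, kept only where the protein sequence was available.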
# [2] = molecular target: Man(a1-2)Man(a1-3)[Man(a1-6)]Man(a1-6)[Man(a1-2)Man(a1-3)]Man(b1-4)GlcNAc(b1-4)GlcNAc
# Summary of the method: as §1
# [3] = molecular target: Man(a1-2)Man(a1-6)[Man(a1-3)]Man(a1-6)[Man(a1-2)Man(a1-2)Man(a1-3)]Man
# Summary of the method: as §1
# [4] = molecular target: Man(a1-2)Man(a1-6)[Man(a1-3)]Man(a1-6)[Man(a1-2)Man(a1-2)Man(a1-3)]Man(b1-4)GlcNAc(b1-4)GlcNAc
# Summary of the method: as §1
# Man(a1-3)[Man(a1-6)]Man = molecular target: Man(a1-3)[Man(a1-6)]Man
# Summary of the method: as §1
# [5] = molecular target: Man(a1-3)[Man(a1-6)]Man(a1-6)[Man(a1-2)Man(a1-3)]Man(b1-4)GlcNAc(b1-4)GlcNAc
# Summary of the method: as §1
# [6] = molecular target: Man(a1-3)[Man(a1-6)]Man(a1-6)[Man(a1-3)]Man
# Summary of the method: as §1
# [7] = molecular target: Man(a1-3)[Man(a1-6)]Man(a1-6)[Man(a1-3)]Man(b1-4)GlcNAc(b1-4)GlcNAc
# Summary of the method: as §1
# [8] = molecular target: Man(a1-3)[Man(a1-6)]Man(b1-4)GlcNAc(b1-4)GlcNAc
# Summary of the method: as §1
# [9] = molecular target: Man(a1-3)[Man(a1-6)]Man(b1-4)GlcNAc(b1-4)[Fuc(a1-6)]GlcNAc
# Summary of the method: as §1
# Man(a1-6)Man = molecular target: Man(a1-6)Man
# Summary of the method: as §1
# Man(b1-4)GlcNAc = molecular target: Man(b1-4)GlcNAc
# Summary of the method: as §1
# MurNAc(b1-4)GlcNAc = molecular target: MurNAc(b1-4)GlcNAc
# Summary of the method: as §1
# Neu5Ac(a2-3)Gal = molecular target: Neu5Ac(a2-3)Gal
# Summary of the method: as §1
# [10] = molecular target: Neu5Ac(a2-3)Gal(b1-3)GalNAc
# Summary of the method: as §1
# [11] = molecular target: Neu5Ac(a2-3)Gal(b1-3)GalNAc(b1-3)Gal(a1-4)Gal(b1-4)Glc
# Summary of the method: as §1
# [12] = molecular target: Neu5Ac(a2-3)Gal(b1-3)GalNAc(b1-4)[Neu5Ac(a2-3)]Gal(b1-4)Glc
# Summary of the method: as §1
# [13] = molecular target: Neu5Ac(a2-3)Gal(b1-3)GalNAc(b1-4)[Neu5Ac(a2-8)Neu5Ac(a2-3)]Gal(b1-4)Glc
# Summary of the method: as §1
# [14] = molecular target: Neu5Ac(a2-3)Gal(b1-3)GalNAc6S
# Summary of the method: as §1
# [15] = molecular target: Neu5Ac(a2-3)Gal(b1-3)GlcNAc
# Summary of the method: as §1
# [16] = molecular target: Neu5Ac(a2-3)Gal(b1-3)GlcNAc(b1-2)Man
# Summary of the method: as §1
# [17] = molecular target: Neu5Ac(a2-3)Gal(b1-3)GlcNAc(b1-2)Man(a1-3)[GlcNAc(b1-4)][Neu5Ac(a2-3)Gal(b1-3)GlcNAc(b1-2)Man(a1-6)]Man(b1-4)GlcNAc(b1-4)GlcNAc
# Summary of the method: as §1
# [18] = molecular target: Neu5Ac(a2-3)Gal(b1-3)GlcNAc(b1-2)Man(a1-3)[Neu5Ac(a2-3)Gal(b1-3)GlcNAc(b1-2)Man(a1-6)]Man(b1-4)GlcNAc(b1-4)GlcNAc
# Summary of the method: as §1
# [19] = molecular target: Neu5Ac(a2-3)Gal(b1-3)GlcNAc(b1-3)Gal(b1-3)GlcNAc
# Summary of the method: as §1
# [20] = molecular target: Neu5Ac(a2-3)Gal(b1-3)GlcNAc(b1-3)Gal(b1-4)GlcNAc
# Summary of the method: as §1
# [21] = molecular target: Neu5Ac(a2-3)Gal(b1-3)GlcNAc(b1-3)GalNAc
# Summary of the method: as §1
# [22] = molecular target: Neu5Ac(a2-3)Gal(b1-3)GlcNAc(b1-4)Gal(b1-4)Glc
# Summary of the method: as §1
# [23] = molecular target: Neu5Ac(a2-3)Gal(b1-3)GlcNAc(b1-6)GalNAc
# Summary of the method: as §1
# [24] = molecular target: Neu5Ac(a2-3)Gal(b1-3)GlcNAc6S
# Summary of the method: as §1
# [25] = molecular target: Neu5Ac(a2-3)Gal(b1-3)[Fuc(a1-4)]GlcNAc
# Summary of the method: as §1
# [26] = molecular target: Neu5Ac(a2-3)Gal(b1-3)[Fuc(a1-4)]GlcNAc(b1-3)Gal(b1-3)[Fuc(a1-4)]GlcNAc
# Summary of the method: as §1
# [27] = molecular target: Neu5Ac(a2-3)Gal(b1-3)[Fuc(a1-4)]GlcNAc(b1-3)Gal(b1-4)[Fuc(a1-3)]GlcNAc
# Summary of the method: as §1
# [28] = molecular target: Neu5Ac(a2-3)Gal(b1-3)[GlcNAc(b1-6)]GalNAc
# Summary of the method: as §1
# [29] = molecular target: Neu5Ac(a2-3)Gal(b1-3)[Neu5Ac(a2-6)]GalNAc
# Summary of the method: as §1
# [30] = molecular target: Neu5Ac(a2-3)Gal(b1-3)[Neu5Ac(a2-6)]GlcNAc(b1-3)[Fuc(a1-3)[Gal(b1-4)]GlcNAc(b1-6)]Gal(b1-4)Glc
# Summary of the method: as §1
# [31] = molecular target: Neu5Ac(a2-3)Gal(b1-3)]Neu5Ac(a2-3)Gal(b1-4)]GlcNAc
# Summary of the method: as §1
# Neu5Ac(a2-3)Gal(b1-4)Glc = molecular target: Neu5Ac(a2-3)Gal(b1-4)Glc
# Summary of the method: as §1
binder,measurement,setting,value
B1,glycan array binding signal (z-score),[1],-0.033
same,glycan array binding signal (z-score),[2],-0.406
same,glycan array binding signal (z-score),[3],-0.436
same,glycan array binding signal (z-score),[4],0.271
same,glycan array binding signal (z-score),Man(a1-3)[Man(a1-6)]Man,0.116
same,glycan array binding signal (z-score),[5],-0.258
same,glycan array binding signal (z-score),[6],-0.303
same,glycan array binding signal (z-score),[7],-0.434
same,glycan array binding signal (z-score),[8],-0.191
same,glycan array binding signal (z-score),[9],-0.531
same,glycan array binding signal (z-score),Man(a1-6)Man,1.5
same,glycan array binding signal (z-score),Man(b1-4)GlcNAc,0.041
same,glycan array binding signal (z-score),MurNAc(b1-4)GlcNAc,-0.305
same,glycan array binding signal (z-score),Neu5Ac(a2-3)Gal,0.157
same,glycan array binding signal (z-score),[10],-0.512
same,glycan array binding signal (z-score),[11],-0.324
same,glycan array binding signal (z-score),[12],0.791
same,glycan array binding signal (z-score),[13],-0.39
same,glycan array binding signal (z-score),[14],-0.096
same,glycan array binding signal (z-score),[15],-0.491
same,glycan array binding signal (z-score),[16],-0.223
same,glycan array binding signal (z-score),[17],-0.549
same,glycan array binding signal (z-score),[18],0.342
same,glycan array binding signal (z-score),[19],-0.475
same,glycan array binding signal (z-score),[20],-0.552
same,glycan array binding signal (z-score),[21],-0.354
same,glycan array binding signal (z-score),[22],0.467
same,glycan array binding signal (z-score),[23],-0.414
same,glycan array binding signal (z-score),[24],-0.162
same,glycan array binding signal (z-score),[25],-0.323
same,glycan array binding signal (z-score),[26],-0.322
same,glycan array binding signal (z-score),[27],-0.201
same,glycan array binding signal (z-score),[28],0.145
same,glycan array binding signal (z-score),[29],0.393
same,glycan array binding signal (z-score),[30],0.272
same,glycan array binding signal (z-score),[31],0.462
same,glycan array binding signal (z-score),Neu5Ac(a2-3)Gal(b1-4)Glc,-0.089
